In the supplement of paper PMC4967469 one finds AUC and IC50 data, which are given here for 51 cell lines.

The IC50 comes from the fitted curve, where viability falls to half of the control; where the fit passes the top or lowest dose, that dose stands as a limit. AUC, from the same fit, is the share of area under the viability curve across the 256-fold dose range: 1 means no effect, lower means more sensitive. Some results are limits rather than exact numbers.

Compound in the assay: CC[C@H](Nc1ncnc2[nH]cnc12)c1nc2cccc(F)c2c(=O)n1-c1ccccc1 [CAL-101]
Kind of assay: Viability of human cancer cell lines after 72 h of drug (GDSC screen). The protocol:
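Human cancer cell lines in 384-well plates, medium with 10% serum, drug for 72 h over a 256-fold dose range (nine 2-fold or five 4-fold steps up to the top dose). Adherent lines were fixed and stained with the nucleic acid dye Syto60, suspension lines read with resazurin; signal relative to control wells, capped at 0 and 100%. One two-parameter sigmoid per drug and line, fitted in a mixed model over all curves with the slope shared within a line.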

Usually IC50 stands for the concentration needed to halve the response being measured. Take “Farage (B-cell lymphoma, suspension, top dose 20 µM)”: the AUC was 0.496 and the IC50 was found to be 1.22 µM.
The matching figures for “G-292 Clone A141B1 (osteosarcoma, adherent, top dose 20 µM)”: 0.896 and above 20 µM.
The matching figures for “G-361 (melanoma, adherent, top dose 20 µM)”: 0.959 and above 20 µM.
For the cell line “G-401 (kidney, adherent, top dose 20 µM)”, the AUC came to 0.928 and the 50% inhibitory concentration (IC50) is above 20 µM.
The matching figures for “G-402 (soft tissue, adherent, top dose 20 µM)”: 0.873 and above 20 µM.
The matching figures for “G-MEL (melanoma, adherent, top dose 20 µM)”: 0.955 and above 20 µM.
The matching figures for “GAK (melanoma, adherent, top dose 20 µM)”: 0.989 and above 20 µM.
As for GAMG (glioma, adherent, top dose 20 µM), the AUC stood at 0.906 and the IC50 is above 20 µM.
Take GB-1 (glioma, adherent, top dose 20 µM): the AUC turned out to be 0.949 and the IC50 was above 20 µM.
The matching figures for “GCIY (stomach, adherent, top dose 20 µM)”: 0.979 and above 20 µM.
The matching figures for “GCT (soft tissue, adherent, top dose 20 µM)”: 0.989 and above 20 µM.
The corresponding values for “GDM-1 (acute myeloid leukaemia, suspension, top dose 20 µM)” are 0.688 and 4.1 µM.
Consider GI-1 (glioma, adherent, top dose 20 µM), for which the AUC is 0.954 and the IC50 was above 20 µM.
The matching figures for “GI-ME-N (neuroblastoma, adherent, top dose 20 µM)”: 0.898 and above 20 µM.
Turning to “GMS-10 (glioma, adherent, top dose 20 µM)”, the AUC is 0.988 and the concentration for half-maximal inhibition (IC50) is above 20 µM.
The corresponding values for “GOTO (neuroblastoma, adherent, top dose 20 µM)” are 0.98 and above 20 µM.
The matching figures for “GP5d (large intestine, adherent, top dose 20 µM)”: 0.962 and above 20 µM.
With “GR-ST (lymphoblastic leukaemia, suspension, top dose 20 µM)”, the AUC turned out to be 0.903 and the half-maximal inhibitory concentration (IC50) is above 20 µM.
Regarding “GRANTA-519 (B-cell lymphoma, suspension, top dose 20 µM)”, the AUC was determined as 0.9 and the IC50 is above 20 µM.
As to “GT3TKB (stomach, adherent, top dose 20 µM)”, the AUC came to 0.99 and the IC50 was above 20 µM.
The corresponding values for H4 (glioma, adherent, top dose 20 µM) are 0.958 and above 20 µM.
As to “H9 (lymphoid neoplasm, suspension, top dose 20 µM)”, the AUC was determined as 0.984 and the IC50 is above 20 µM.
The matching figures for “H290 (mesothelioma, adherent, top dose 20 µM)”: 0.975 and above 20 µM.
“H513 (mesothelioma, semi-adherent, top dose 20 µM)”: the AUC is 0.973 and the IC50 was above 20 µM.
As to “H2369 (mesothelioma, adherent, top dose 20 µM)”, the AUC stood at 0.984 and the concentration for half-maximal inhibition (IC50) was above 20 µM.
On to “H2373 (mesothelioma, adherent, top dose 20 µM)”, for which the AUC is 0.98 and the IC50 is above 20 µM.
The corresponding values for “H2461 (mesothelioma, adherent, top dose 20 µM)” are 0.98 and above 20 µM.
“H2591 (mesothelioma, adherent, top dose 20 µM)”: the AUC worked out at 0.972 and the IC50 was above 20 µM.
Turning to “H2595 (mesothelioma, adherent, top dose 20 µM)”, the AUC is 0.967 and the IC50 was above 20 µM.
Regarding “H2722 (mesothelioma, adherent, top dose 20 µM)”, the AUC is 0.983 and the IC50 is above 20 µM.
For the cell line “H2731 (mesothelioma, adherent, top dose 20 µM)”, the AUC was 0.937 and the IC50 is above 20 µM.
For “H2795 (mesothelioma, adherent, top dose 20 µM)”, the AUC worked out at 0.938 and the IC50 was above 20 µM.
The matching figures for “H2803 (mesothelioma, adherent, top dose 20 µM)”: 0.98 and above 20 µM.
The matching figures for “H2804 (mesothelioma, adherent, top dose 20 µM)”: 0.963 and above 20 µM.
The corresponding values for “H2818 (mesothelioma, adherent, top dose 20 µM)” are 0.981 and above 20 µM.
On to “H3118 (head and neck, adherent, top dose 20 µM)”, for which the AUC turned out to be 0.954 and the IC50 was above 20 µM.
With “H3255 (lung adenocarcinoma, adherent, top dose 20 µM)”, the AUC stood at 0.976 and the IC50 was above 20 µM.
Take “H-EMC-SS (chondrosarcoma, adherent, top dose 20 µM)”: the AUC is 0.94 and the IC50 is above 20 µM.
The matching figures for “HA7-RCC (kidney, adherent, top dose 20 µM)”: 0.904 and above 20 µM.
The corresponding values for “HAL-01 (lymphoblastic leukaemia, suspension, top dose 20 µM)” are 0.207 and 0.196 µM.
The corresponding values for “HARA (lung squamous cell carcinoma, adherent, top dose 20 µM)” are 0.945 and above 20 µM.
Consider “HC-1 (hairy cell leukaemia, suspension, top dose 20 µM)”, for which the AUC amounted to 0.624 and the IC50 came out at 2.7 µM.
The corresponding values for “HCC38 (breast, adherent, top dose 20 µM)” are 0.953 and above 20 µM.
Take “HCC70 (breast, adherent, top dose 20 µM)”: the AUC amounted to 0.929 and the IC50 is above 20 µM.
The corresponding values for “HCC202 (breast, adherent, top dose 20 µM)” are 0.821 and 18.2 µM.
Consider “HCC1143 (breast, adherent, top dose 20 µM)”, for which the AUC turned out to be 0.924 and the IC50 was above 20 µM.
The matching figures for “HCC1187 (breast, suspension, top dose 20 µM)”: 0.936 and above 20 µM.
The corresponding values for “HCC1395 (breast, adherent, top dose 20 µM)” are 0.971 and above 20 µM.
The matching figures for “HCC1419 (breast, adherent, top dose 20 µM)”: 0.966 and above 20 µM.
Regarding “HCC1428 (breast, adherent, top dose 20 µM)”, the AUC came out at 0.977 and the IC50 is above 20 µM.
The matching figures for “HCC1500 (breast, adherent, top dose 10.24 µM)”: 0.988 and above 10.2 µM.
